Experimental data published in paper PMC6919601, “Identification of Plasmodium dipeptidyl aminopeptidase allosteric inhibitors by high throughput screening” (PLoS ONE, 2019).
Hit rate of the full screen: of about 110,000 compounds, about 230 (0.21%) showed an effect of 50% or more. Some of the results follow.
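Further: 30 min substrate incubation versus DMSO and 10 µM JCP410 controls.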

What follows are compounds tested against DPAP1 (Plasmodium falciparum, UniProt Q8IIJ9) (assay: primary screen, percent inhibition; read by cleavage of a fluorogenic dipeptide substrate; higher = more effect of the substance).
Chain of DPAP1 (Q8IIJ9 whole entry, looked up): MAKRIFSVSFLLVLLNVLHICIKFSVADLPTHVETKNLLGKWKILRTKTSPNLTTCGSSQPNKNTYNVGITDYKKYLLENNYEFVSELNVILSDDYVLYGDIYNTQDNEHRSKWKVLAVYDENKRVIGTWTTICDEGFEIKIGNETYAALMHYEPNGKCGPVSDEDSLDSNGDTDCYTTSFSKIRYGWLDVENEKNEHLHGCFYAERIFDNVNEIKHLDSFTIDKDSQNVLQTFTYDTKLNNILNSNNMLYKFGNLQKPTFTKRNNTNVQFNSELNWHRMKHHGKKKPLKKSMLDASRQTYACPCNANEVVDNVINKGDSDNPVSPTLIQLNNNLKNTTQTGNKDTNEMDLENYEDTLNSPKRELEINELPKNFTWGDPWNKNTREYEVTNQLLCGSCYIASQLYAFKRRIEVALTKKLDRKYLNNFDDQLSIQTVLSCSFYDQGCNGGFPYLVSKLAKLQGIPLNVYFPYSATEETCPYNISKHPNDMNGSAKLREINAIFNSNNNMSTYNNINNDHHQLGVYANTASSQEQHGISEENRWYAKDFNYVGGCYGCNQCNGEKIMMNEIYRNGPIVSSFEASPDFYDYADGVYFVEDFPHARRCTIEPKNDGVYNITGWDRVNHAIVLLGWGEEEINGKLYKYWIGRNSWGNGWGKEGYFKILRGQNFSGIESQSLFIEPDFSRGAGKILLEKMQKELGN
Parameters: species or system P. falciparum D10 trophozoite lysates; single well
With `Cc1nc2nc(C)c(CCC(=O)NCC(C)c3ccccc3)c(C)n2n1` (stereo not shown) the “% Inhibition @ 10 uM” value was -0.465%.
In the case of `COc1ccc(-n2nnnc2C2CCN(S(=O)(=O)c3cccs3)CC2)cc1`, the “% Inhibition @ 10 uM” value was -7.24%.
In the case of `Cn1c(=O)[nH]c(=O)c2c1nc(Sc1nc3ccccc3[nH]1)n2Cc1ccc(Cl)cc1`, the “% Inhibition @ 10 uM” value was -0.946%.
`Cc1cc(C)c(NC(=O)CN2CCCCC2)c(C)c1` was tested, and the “% Inhibition @ 10 uM” value was 6.96%.
For `CN(C)CCN(Cc1ccccc1)Cc1cc(Cl)cc(Cl)c1O`, the “% Inhibition @ 10 uM” value was -7.17%.
For `O=C(Cn1cnc2c(nnn2Cc2ccc(F)cc2)c1=O)NCc1ccc2c(c1)OCO2`, the “% Inhibition @ 10 uM” value was -11.8%.
With `CCCCN1C(=O)CN(CCc2ccccc2)C(=O)C1c1ccc(OC)cc1` (stereo not shown) the “% Inhibition @ 10 uM” value was -0.519%.
In the case of `CC(C)CCN(C(C)c1cccs1)S(=O)(=O)c1csc(C(N)=O)c1` (stereo not shown), the “% Inhibition @ 10 uM” value was 1.22%.
`COc1cc2c(cc1OC)C(c1cc(Br)ccc1O)N(C(C)=O)CC2` (stereo not shown) was tested, and the “% Inhibition @ 10 uM” value was 0.98%.
`COc1ccccc1NC(=O)Cc1cccc2ccccc12` was tested, and the “% Inhibition @ 10 uM” value was 5.66%.
With `COc1ccc(OCc2nn3c(-c4ccccc4Cl)nnc3s2)cc1` the “% Inhibition @ 10 uM” value was 4.96%.
With `Cc1ccc(-c2nnn(CC(=O)N(c3cnc4ccccc4c3)C(C)C(=O)NCCC(C)C)n2)cc1` (stereo not shown) the “% Inhibition @ 10 uM” value was -1.44%.
With `CCOC(=O)C1=C(C)NC(=O)NC1c1ccccc1O` (stereo not shown) the “% Inhibition @ 10 uM” value was 3.16%.
With `CCOc1ccc(C(=O)/C=C/c2cn(CC(O)CN3CCOCC3)c3ccccc23)cc1` (stereo not shown) the “% Inhibition @ 10 uM” value was 7.77%.
With `O=c1c2cccnc2n(Cc2ccc(Cl)cc2)c(=O)n1CCc1ccccc1` the “% Inhibition @ 10 uM” value was -1.66%.
In the case of `CC(=O)N1CCC(N[C@H]2CCCCNC2=O)CC1`, the “% Inhibition @ 10 uM” value was 0.273%.
`COc1ccc(-c2cc(C(N)=O)[nH]n2)c(F)c1` was tested, and the “% Inhibition @ 10 uM” value was 2.7%.
For `COCc1nc2ccccc2n1Cc1ccc(Cl)c(Cl)c1`, the “% Inhibition @ 10 uM” value was 0.287%.
For `Cc1cc(O)nc(SCc2cc(=O)n3nc(C)sc3n2)n1`, the “% Inhibition @ 10 uM” value was -3.95%.
With `COc1ccc(-c2cc(-c3ccc(C)cc3O)[nH]n2)cc1` the “% Inhibition @ 10 uM” value was -2.73%.
In the case of `COc1ccc2[nH]c3c(c2c1)CCn1c-3nc2ccccc2c1=O`, the “% Inhibition @ 10 uM” value was 14%.
`COc1ccc2[nH]c3nc4ccccc4nc3c2c1` was tested, and the “% Inhibition @ 10 uM” value was -1.53%.
`Cc1nn(-c2ccc(F)cc2)c(-n2cccc2)c1C(=O)NCCc1cccs1` was tested, and the “% Inhibition @ 10 uM” value was -6.49%.
In the case of `CCCc1[nH]nc2c1C(c1ccc(OC)c(OC)c1OC)C(C#N)=C(N)O2` (stereo not shown), the “% Inhibition @ 10 uM” value was -4.75%.
`COc1cc(CN2CCN(C3CCC(C)CC3)CC2)cc(OC)c1OC` (stereo not shown) was tested, and the “% Inhibition @ 10 uM” value was -2.34%.
In the case of `c1ccc(OCCCN2CCOCC2)cc1`, the “% Inhibition @ 10 uM” value was 2.13%.
In the case of `CC1CCc2c(sc(/N=C/N(C)C)c2C#N)C1` (stereo not shown), the “% Inhibition @ 10 uM” value was -4.12%.
`CCOc1ccc(C2C(C#N)=C(N)OC3=C2C(=O)CC(C)(C)C3)cc1OCC` (stereo not shown) was tested, and the “% Inhibition @ 10 uM” value was -0.883%.
For `Cc1ccc(CS(=O)Cc2ccc(C(=O)NCCCc3ccccc3)o2)cc1` (stereo not shown), the “% Inhibition @ 10 uM” value was -8.59%.
With `CCCCN1C(=O)CN(C2CCC(C)CC2)C(=O)C1c1ccc(OC(C)C)c(OC)c1` (stereo not shown) the “% Inhibition @ 10 uM” value was -4.06%.
`O=C(c1ccc(Cl)cc1)N1CCN(C/C=C/c2ccccc2)CC1` was tested, and the “% Inhibition @ 10 uM” value was 5.55%.
For `CCCCN(C)CCCNC(=O)c1cnn(-c2ccccc2)c1-n1cccc1`, the “% Inhibition @ 10 uM” value was 1.8%.
For `CCN(CC)CCN(CC)C1CCC(c2ccccc2)CC1` (stereo not shown), the “% Inhibition @ 10 uM” value was 2.22%.
With `N#CC1=C(N)Oc2c(oc(CO)cc2=O)C1c1ccc(SC(F)(F)F)cc1` (stereo not shown) the “% Inhibition @ 10 uM” value was -7.3%.
In the case of `Fc1cccc(-c2nc3c4ccccc4nc(S)n3n2)c1`, the “% Inhibition @ 10 uM” value was 12.2%.
`CN1CCN(CCC/N=c2\c(N)c(O)oc3ccccc23)CC1` was tested, and the “% Inhibition @ 10 uM” value was 4.17%.
In the case of `Cc1ccc(Cn2nnc3c(O)nc(C4CCN(C(=O)c5ccc(C(F)(F)F)cc5)CC4)nc32)cc1`, the “% Inhibition @ 10 uM” value was 3.66%.
In the case of `CCOc1ccc(OCC)c(S(=O)(=O)N2CCN(c3ccc(C)c(C)c3)CC2)c1`, the “% Inhibition @ 10 uM” value was 5.63%.
In the case of `COc1ccccc1N1CCN(S(=O)(=O)c2cc(C)c(Br)cc2C)CC1`, the “% Inhibition @ 10 uM” value was -11.1%.
For `COc1cc(-n2c(C)nc3cc(C(=O)NCCN4CCOCC4)ccc32)cc(OC)c1OC`, the “% Inhibition @ 10 uM” value was -2.17%.
In the case of `CN(C(=O)C1CCCN(c2ncnc3onc(-c4ccc(F)cc4)c23)C1)C1CCCCC1` (stereo not shown), the “% Inhibition @ 10 uM” value was -5.57%.
For `COc1cccc(-c2cccc(C(=O)N[C@@H](CC(C)C)C(=O)NCC#N)c2)c1`, the “% Inhibition @ 10 uM” value was -3.48%.
`Nc1ncnc2c1nc(SCC(=O)O)n2Cc1ccccc1` was tested, and the “% Inhibition @ 10 uM” value was -3.5%.
In the case of `CCOc1cc(C2NC(=O)NC(C)=C2C(=O)Nc2ccc(Cl)cc2)ccc1O` (stereo not shown), the “% Inhibition @ 10 uM” value was -4.69%.
For `O=c1c2cnn(-c3ccccc3)c2ncn1Cc1cccc2ccccc12`, the “% Inhibition @ 10 uM” value was 3.24%.
For `CCOc1ccccc1C1C(C(=O)OC)=CN(Cc2ccc(F)cc2)C=C1C(=O)OC`, the “% Inhibition @ 10 uM” value was 4.99%.
`COc1ccc(C(=O)NCc2cccnc2)cc1` was tested, and the “% Inhibition @ 10 uM” value was -0.132%.
`CN(C(=O)c1ccc(Br)o1)C1CCS(=O)(=O)C1` (stereo not shown) was tested, and the “% Inhibition @ 10 uM” value was -8.3%.
For `Cc1[nH]c2ccccc2c1-c1csc(-c2ccncc2)n1`, the “% Inhibition @ 10 uM” value was 4.11%.
